We go through 56 molecules from PMC4336329 (PLoS ONE, 2015).

The campaign covered roughly 310,000 compounds. About 2,200 (0.71%) showed an effect of 50% or more. Effects have a minus sign here. Some of the results follow.

The target in the assay is human ether-à-go-go-related gene (hERG) potassium channel (human, UniProt Q12809). The assay is described as follows: primary screen, population patch clamp on CHO cells stably expressing hERG.
Sequence of human ether-à-go-go-related gene (hERG) potassium channel (Q12809 whole entry, looked up): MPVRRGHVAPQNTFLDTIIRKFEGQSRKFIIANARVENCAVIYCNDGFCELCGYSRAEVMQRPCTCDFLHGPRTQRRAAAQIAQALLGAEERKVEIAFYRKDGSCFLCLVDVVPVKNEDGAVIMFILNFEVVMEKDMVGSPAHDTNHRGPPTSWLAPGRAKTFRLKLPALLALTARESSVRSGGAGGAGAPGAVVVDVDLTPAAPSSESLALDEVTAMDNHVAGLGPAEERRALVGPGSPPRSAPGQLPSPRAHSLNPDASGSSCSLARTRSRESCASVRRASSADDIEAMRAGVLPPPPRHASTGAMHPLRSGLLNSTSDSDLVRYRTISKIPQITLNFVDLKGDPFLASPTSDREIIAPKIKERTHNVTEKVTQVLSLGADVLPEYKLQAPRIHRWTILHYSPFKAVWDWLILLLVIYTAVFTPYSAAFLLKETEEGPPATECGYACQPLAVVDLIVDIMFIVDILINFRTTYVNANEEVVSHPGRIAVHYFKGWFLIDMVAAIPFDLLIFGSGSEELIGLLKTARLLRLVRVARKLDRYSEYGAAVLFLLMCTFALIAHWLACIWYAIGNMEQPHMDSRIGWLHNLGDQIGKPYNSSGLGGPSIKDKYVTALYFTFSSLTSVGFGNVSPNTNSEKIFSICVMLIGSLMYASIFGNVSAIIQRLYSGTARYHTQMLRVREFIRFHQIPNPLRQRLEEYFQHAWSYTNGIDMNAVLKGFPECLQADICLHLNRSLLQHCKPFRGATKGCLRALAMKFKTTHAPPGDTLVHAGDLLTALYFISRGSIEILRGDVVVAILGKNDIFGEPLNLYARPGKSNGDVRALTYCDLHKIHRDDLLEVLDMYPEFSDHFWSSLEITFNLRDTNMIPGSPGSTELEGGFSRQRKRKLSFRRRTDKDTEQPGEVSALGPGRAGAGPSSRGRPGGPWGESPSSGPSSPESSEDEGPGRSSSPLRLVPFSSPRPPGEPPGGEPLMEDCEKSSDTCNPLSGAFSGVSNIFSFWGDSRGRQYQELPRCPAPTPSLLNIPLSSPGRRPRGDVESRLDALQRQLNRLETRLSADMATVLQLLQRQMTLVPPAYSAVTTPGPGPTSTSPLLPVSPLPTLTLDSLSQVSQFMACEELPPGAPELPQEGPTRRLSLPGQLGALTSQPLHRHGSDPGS
As to `Cc1ccc(C(=O)OCC(=O)NC2CCCCC2)s1`, the “hERG current change (%, negative = inhibition) at 1uM” value was 0.683%. On to `O=C(NCc1ccccn1)c1ccc(NS(=O)(=O)c2cccc(Cl)c2)cc1`, for which the “hERG current change (%, negative = inhibition) at 1uM” value is listed as 10.3%.

On to `CCN1CCN(Cc2cc(C(C)(C)C)c(O)c(C(C)(C)C)c2)CC1`, for which the “hERG current change (%, negative = inhibition) at 1uM” value came to 0.674%. With `O=S(=O)(NCc1ccc2c(c1)OCO2)c1cccc(F)c1`, the “hERG current change (%, negative = inhibition) at 1uM” value stood at 2.41%.

With `O=C1c2ccccc2C(=O)c2c1cccc2N1CCN(C/C=C/c2ccccc2)CC1`, the “hERG current change (%, negative = inhibition) at 1uM” value came to 8.23%.

On to `CC1CCC(NC(=O)C2COc3ccccc3O2)CC1` (centres unmarked), for which the “hERG current change (%, negative = inhibition) at 1uM” value was determined as 24.4%.

Regarding `COc1ccc(-c2nn(C)c(=O)c3ccccc23)cc1CNC(=O)c1ccco1`, the “hERG current change (%, negative = inhibition) at 1uM” value was -6.54%. As for `Cc1nnc(NC(=O)C2CCCN(S(=O)(=O)Cc3ccccc3)C2)s1` (centres unmarked), the “hERG current change (%, negative = inhibition) at 1uM” value is on record as 0.612%.

`CCc1ccc(NC(=O)C2CCN(c3ncnc4c3nc3n4CCCCC3)CC2)cc1`: the “hERG current change (%, negative = inhibition) at 1uM” value is 2.6%. Turning to `O=C(c1cc2ccccc2oc1=O)N(Cc1ccco1)C1CCS(=O)(=O)C1` (centres unmarked), the “hERG current change (%, negative = inhibition) at 1uM” value stood at 12.3%. With `Cc1nonc1NC(=O)CSc1ccccn1`, the “hERG current change (%, negative = inhibition) at 1uM” value was found to be 9.48%. For `O=C(NCc1ccccc1)C1CCCN(C(=O)NCc2ccccc2)C1` (centres unmarked), the “hERG current change (%, negative = inhibition) at 1uM” value is 7.68%. As for `Cc1cc(OCc2nn[nH]n2)c2c3c(c(=O)oc2c1)CCC3`, the “hERG current change (%, negative = inhibition) at 1uM” value was 8.06%.

Take `O=C(CCC(=O)OCCCC(F)(F)C(F)(F)F)Nc1ccc(Cl)cc1Cl`: the “hERG current change (%, negative = inhibition) at 1uM” value was determined as 7%. In the case of `Cc1ccc(S(=O)(=O)N2CCCN(C)c3nc4ccccc4nc32)cc1` it was 4.38%. On to `Cc1ccccc1NC(=O)CCN1C(=O)CSC1=O`, for which the “hERG current change (%, negative = inhibition) at 1uM” value is 12.4%. As to `Cc1ccnc(SCCn2c(N3CCCCC3)nc3c2c(=O)n(C)c(=O)n3C)n1`, the “hERG current change (%, negative = inhibition) at 1uM” value was found to be 4.67%. For `Cc1ccc(Oc2ncccc2CO)cc1`, the “hERG current change (%, negative = inhibition) at 1uM” value was determined as 10.2%. Regarding `Cc1ccc(NC(=O)c2ccc(N/N=C/c3cccc(O)c3)c([N+](=O)[O-])c2)cc1`, the “hERG current change (%, negative = inhibition) at 1uM” value is given as 16.6%. With `Cc1ccc(O)c(NC(=O)c2ccc3c(c2)C(=O)N(Cc2cccnc2)C3=O)c1`, the “hERG current change (%, negative = inhibition) at 1uM” value was 7.17%.

Take `CC(=O)Nc1ccc(NC(=O)C(C)OC(=O)C2CCC2)cc1` (centres unmarked): the “hERG current change (%, negative = inhibition) at 1uM” value is 1.84%. Take `Cc1nc(N(CCO)C2CCCCC2)c2nnn(Cc3ccccc3)c2n1`: the “hERG current change (%, negative = inhibition) at 1uM” value was determined as 14.2%. Turning to `CCc1c(C)nc2ncnn2c1N1CCCC(C(=O)Nc2ccc(NC(C)=O)cc2)C1` (centres unmarked), the “hERG current change (%, negative = inhibition) at 1uM” value is on record as 16.9%. Consider `CCc1cc(=O)oc2cc(C)cc(OCC(=O)N3CCC(C(=O)O)(c4ccccc4)CC3)c12`, for which the “hERG current change (%, negative = inhibition) at 1uM” value is on record as 8.76%.

Consider `O=C(Nc1ccccc1)N(Cc1cccs1)C1CCCC1`, for which the “hERG current change (%, negative = inhibition) at 1uM” value worked out at 12.2%.

For the molecule `Cc1cc2n(c1)CCn1c(C)ccc1-2`, the “hERG current change (%, negative = inhibition) at 1uM” value came out at 12.2%.

As to `CC1=C(C(=O)OCc2ccccc2)C(c2ccc(C(C)(C)C)cc2)NC(=O)N1CCCCCC(=O)O` (centres unmarked), the “hERG current change (%, negative = inhibition) at 1uM” value is 7.11%. In the case of `CCOc1cc(NC(=S)NCCCN2CCOCC2)c(OCC)cc1NC(=O)c1cccs1`, the “hERG current change (%, negative = inhibition) at 1uM” value is on record as 15.2%. `COc1ccc(S(=O)(=O)Nc2ccccc2C(=O)NCc2ccco2)cc1Br`: the “hERG current change (%, negative = inhibition) at 1uM” value is 12.4%. As for `O=C(c1cccnc1)N1CCN(C(=O)c2cccs2)CC1`, the “hERG current change (%, negative = inhibition) at 1uM” value is reported as 17%. As to `O=C(O)c1ccc(CN(Cc2ccccc2)S(=O)(=O)c2ccc(Cl)cc2)cc1`, the “hERG current change (%, negative = inhibition) at 1uM” value was found to be 12.3%. Take `COc1cc(C2=Nc3ccc(Br)cc3C(c3ccccc3)N2CC(=O)NN)cc(OC)c1OC` (centres unmarked): the “hERG current change (%, negative = inhibition) at 1uM” value was 4.38%. As to `CC(C)(C)C(=O)N1CCN(c2ncccc2C(F)(F)F)CC1`, the “hERG current change (%, negative = inhibition) at 1uM” value was found to be 15.1%. In the case of `COc1ccc(N2CC(O)(c3ccc(OC(F)F)cc3)[N+]3=C2CCCC3)cc1.[Br-]` (centres unmarked) it was -22.4%; in that of `C=C1CCN(C(C)C(=O)O)S(=O)(=O)c2ccccc21` (centres unmarked), 17.1%. In the case of `COc1ccc(NC(=O)CCNS(=O)(=O)c2ccc(Br)s2)cc1` it was -9.16%. As to `CC(=O)Nc1ccc(NC(=O)COc2ncnc3ccccc23)cc1`, the “hERG current change (%, negative = inhibition) at 1uM” value is on record as -6.16%. Consider `CCn1c(=O)cc(OCC(=O)NC2CCCCC2)c2ccccc21`, for which the “hERG current change (%, negative = inhibition) at 1uM” value stood at 25.1%. With `COCc1ccc(C(=O)Nc2ccccc2C(=O)NCc2cccnc2)cc1`, the “hERG current change (%, negative = inhibition) at 1uM” value came to 16.1%.

As for `Cc1ccccc1NC(=O)c1ccc(C)c(S(=O)(=O)N2CCN(C)CC2)c1`, the “hERG current change (%, negative = inhibition) at 1uM” value is listed as 14.3%. Take `CCOC(=O)c1c(/N=C/c2c(O)n(-c3ccccc3F)c(=S)[nH]c2=O)sc2c1CCCC2`: the “hERG current change (%, negative = inhibition) at 1uM” value is 15.7%. Consider `CNC(=O)O/N=C(\N)Cc1csc2ccccc12`, for which the “hERG current change (%, negative = inhibition) at 1uM” value is 9.71%. In the case of `COc1cccc(N2CCN(Cc3cccc(Cl)c3)CC2)c1` it was 12%. In the case of `CC(C)(O)C#Cc1ccc(CN2CCN(C3CCCCC3)C(CCO)C2)cc1` (centres unmarked) it was 6.43%; in that of `O=[N+]([O-])c1ccccc1S(=O)(=O)N1CCN(Cc2ccccc2)CC1`, 6.14%. As to `CCOc1ccc(Cl)cc1CN1CCOCC1.Cl`, the “hERG current change (%, negative = inhibition) at 1uM” value came to 6.88%.

Turning to `CCOC(=O)C1CCCCN1Cc1cn(C)nc1-c1ccccc1F` (centres unmarked), the “hERG current change (%, negative = inhibition) at 1uM” value was determined as 3.95%. For `Cc1cc(C(=O)COC(=O)C2CCN(C(=O)c3ccc(Cl)cc3)CC2)c(C)n1CC1CCCO1` (centres unmarked), the “hERG current change (%, negative = inhibition) at 1uM” value was 5.28%. As for `O=C(NCc1ccc(Cl)cc1)C1CCN(S(=O)(=O)c2ccc(N3CCCC3=O)cc2)CC1`, the “hERG current change (%, negative = inhibition) at 1uM” value was found to be 17.8%. In the case of `COC(C/C=C\[C@H](O)COCc1ccccc1)OC`, the “hERG current change (%, negative = inhibition) at 1uM” value is reported as 16.4%.

As for `O=C(O)C(=O)O.c1ccc(CN2CCN(CCOCCOc3ccc4c(c3)CCC4)CC2)cc1`, the “hERG current change (%, negative = inhibition) at 1uM” value turned out to be 11.6%. To `CC(C)CCOc1ccc(C(CC(N)=O)C(=O)O)cc1` (centres unmarked) belongs 17.4%. For the molecule `O=c1o[nH]c(-c2ccccc2)c1-c1ccccc1`, the “hERG current change (%, negative = inhibition) at 1uM” value is 0.753%.

As to `Cc1ccc(NC(=O)COC(=O)C(CC(C)C)N2C(=O)C3CC=CCC3C2=O)c(C)c1` (centres unmarked), the “hERG current change (%, negative = inhibition) at 1uM” value is on record as 11.3%.

In the case of `O=C(Nc1ccc(-c2nc3ccccc3[nH]2)cc1)c1ccccc1NS(=O)(=O)c1ccc(F)cc1`, the “hERG current change (%, negative = inhibition) at 1uM” value worked out at 0.294%. In the case of `COc1ccc(S(=O)(=O)N2CCOC23CCN(C(=O)c2ccc(Cl)cc2Cl)CC3)cc1`, the “hERG current change (%, negative = inhibition) at 1uM” value is 8.53%.
